The list shows a part of the results.

In one assay the test system is HSkMC. In words: cytotoxicity call (relative viability < 0.9). Conditions: 10 µM.
A further assay has as its system HepG2. In words: cytotoxicity call (relative viability < 0.9). Conditions: 10 µM.
The subject of another assay is S. aureus RN4220. In words: growth inhibition call (relative growth <= 0.2). Conditions: 50 µM.

In the case of `CC(C)C#Cc1ccc2c(c1)O[C@H](CN(C)C(=O)c1cccc(F)c1)[C@H](C)CN([C@@H](C)CO)S2(=O)=O`, the cytotoxicity call in the assay with HSkMC and in the assay on HepG2 was “inactive” throughout. Also, in the assay with S. aureus RN4220, the growth inhibition call was “inactive”.

As for `COCC#Cc1ccc([C@@H]2[C@@H](CO)N3C(=O)CN(C(=O)c4cccnc4)C[C@@H]23)cc1`, the cytotoxicity call in the assay with HSkMC and with HepG2 was “inactive” throughout. For the same compound, the growth inhibition call with S. aureus RN4220 was “inactive”.

As for `Cc1ccc(S(=O)(=O)Nc2ccc3c(c2)C(=O)N([C@@H](C)CO)C[C@H](C)[C@@H](CN(C)C(=O)NC2CCCCC2)OCCCC[C@H](C)O3)cc1`, the cytotoxicity call in the assay on HSkMC is “inactive”. In the assay on HepG2, the cytotoxicity call was “active”. Further, the growth inhibition call in the assay on S. aureus RN4220 is “inactive”.

As for `Cc1ccc([C@@H]2CC(=O)N[C@@H]2C(N)=O)cc1`, the cytotoxicity call with HSkMC and in the assay with HepG2 was “inactive” throughout. In the assay on S. aureus RN4220, the growth inhibition call was “inactive”.

`C[C@@H]1CN([C@@H](C)CO)C(=O)c2ccccc2-c2ccccc2CO[C@@H]1CN(C)C(=O)N[C@H](C)c1ccccc1`: the cytotoxicity call in the assay on HSkMC (human skeletal muscle cells) and in the assay with HepG2 was “inactive” each time. Moreover, in the assay with S. aureus RN4220, the growth inhibition call is “inactive”.

Turning to `COCC#Cc1cnc2c(c1)C(=O)N([C@H](C)CO)C[C@H](C)[C@@H](CN(C)C(=O)CCN1CCCCC1)O2`, the cytotoxicity call in the assay with HSkMC and with HepG2 was “inactive” each time. For the same compound, the growth inhibition call in the assay with S. aureus RN4220 was “inactive”.

With `C[C@@H]1CCCCO[C@H](CN(C)C(=O)Nc2ccc(C(F)(F)F)cc2)[C@H](C)CN([C@H](C)CO)C(=O)c2cc(NS(=O)(=O)c3cccs3)ccc2O1`, the cytotoxicity call in the assay with HSkMC and in the assay on HepG2 was “inactive” in each case. Also, the growth inhibition call in the assay on S. aureus RN4220 was “inactive”.

As for `C[C@@H]1CN([C@@H](C)CO)C(=O)c2cccc(NS(=O)(=O)c3ccccc3)c2O[C@@H]1CN(C)Cc1ccc(-c2ccccc2)cc1`, the cytotoxicity call in the assay with HSkMC and in the assay on HepG2 was “inactive” each time. In the assay on S. aureus RN4220, the growth inhibition call was “inactive”.

As for `Cc1ccc(S(=O)(=O)N(C)C[C@H]2Oc3ncc(C#CCC(C)C)cc3C(=O)N([C@@H](C)CO)C[C@@H]2C)cc1`, the cytotoxicity call with HSkMC and in the assay with HepG2 was “inactive” in each case. The growth inhibition call with S. aureus RN4220 was “inactive”.

On to `COCc1cn(C[C@H](Cc2ccccc2)NC(=O)N[C@H](CO)CCc2oc(C(=O)N3CCOCC3)c(C(=O)OC)c2C(=O)OC)nn1`, for which the cytotoxicity call with HSkMC and in the assay on HepG2 was “inactive” each time. In addition, the growth inhibition call in the assay on S. aureus RN4220 is “inactive”.

Consider `O=C(C1=C[C@H](c2ccc(C(F)(F)F)cc2)C[C@H](OCc2ccc(CO)cc2)O1)N1CCN(Cc2ccccc2)CC1`, for which the cytotoxicity call with HSkMC and with HepG2 was “inactive” in each case. Also, in the assay on S. aureus RN4220, the growth inhibition call is “inactive”.

As to `CC(C)NC(=O)Nc1ccc2c(c1)C(=O)N(C)[C@@H]1CC[C@@H](CC(=O)NCc3ccc(F)cc3)O[C@H]1CO2`, the cytotoxicity call in the assay with HSkMC and in the assay on HepG2 was “inactive” each time. In addition, the growth inhibition call with S. aureus RN4220 was “inactive”.

As for `C[C@@H]1CN([C@@H](C)CO)C(=O)Cc2cc(NC(=O)Nc3ccc(F)cc3)ccc2O[C@@H]1CN(C)Cc1ccc(Cl)c(Cl)c1`, the cytotoxicity call in the assay with HSkMC and in the assay on HepG2 was “active” in each case. Also, the growth inhibition call in the assay on S. aureus RN4220 is “inactive”.
